Data on 42 molecules can be found in ChEMBL document CHEMBL4888484, “Replenishing the malaria drug discovery pipeline: Screening and hit evaluation of the MMV Hit Generation Library 1 (HGL1) against asexual blood stage Plasmodium falciparum ,using a nano luciferase reporter read-out” (2022).

Among all 150,000 compounds or so, about 540 (0.36%) showed an effect of 50% or more. The list shows a part of the results.

For this assay, the system named is Plasmodium falciparum. In words: Primary screen in NF54 nanoGlo assay, in single point, at 2uM, 72h; a lower Z score goes with more inhibition. The assay is classed as functional, Erythrocyte. The note with it: timepoint 72 hour.
One may read the % Inhibition as the change of the read-out against control, counted positive when it falls. `CC(NC1CCN(C)C1c1ccccc1)C(=O)NCC1CCCO1` (centres undefined): the “% Inhibition” value is reported as 0% and the Z score is -0.08.
In the case of `COc1ccc(C2=NS(=O)(=O)N(C)C(C(=O)N3CCCc4ccccc43)=C2)cc1OC`, the “% Inhibition” value is reported as -2% and the Z score worked out at 0.31.
As to `Cc1occc1-c1nc(-c2cc(CN3CCOCC3)c[nH]c2=O)no1`, the “% Inhibition” value worked out at 29% and the Z score is listed as -3.25.
The matching figures for `COC(=O)c1ccc(F)c(NCC(=O)NC(N)=O)c1`: 4% and -0.51.
Regarding `O=C(NCCc1ccco1)c1ccc(Nc2ncccn2)cc1`, the “% Inhibition” value is on record as -15% and the Z score is listed as 1.92.
Take `CCn1c(COC(=O)c2cnccn2)nc2cc(S(=O)(=O)N(C)C)ccc21`: the “% Inhibition” value is given as -6% and the Z score is recorded as 0.9.
As for `CCOc1ccccc1-c1cc(C(=O)Nc2nc(-c3cc(C)ccc3C)c(C)s2)c2ccccc2n1`, the “% Inhibition” value is on record as -30% and the Z score worked out at 3.48.
Consider `O=C(Nc1cccc(Cl)c1)c1nnc(C(=O)N2CCC[C@H](C(=O)NCCN3CCCC3)C2)s1`, for which the “% Inhibition” value is -23% and the Z score stood at 1.99.
On the same counts, the results for `CO[C@H]1CN(C2CCN(C(=O)c3cccc(C)c3)CC2)[C@H]1c1cccnc1` are -19% and 2.18.
As to `Oc1cc(OCc2ccccc2F)ccc1-c1[nH]ncc1-c1ccccc1`, the “% Inhibition” value is 52% and the Z score is given as -11.1.
`COc1cnc(C(=O)N2CCC(C)CC2)cc1O`: the “% Inhibition” value is recorded as -2% and the Z score is on record as 0.46.
Regarding `CCc1nnc2n1CCN(C(=O)C1CC1c1cccc(F)c1)C2` (centres undefined), the “% Inhibition” value is -12% and the Z score was 2.07.
With `CCOc1c(CNC(C)(C)C)cccc1OC`, the “% Inhibition” value turned out to be 39% and the Z score is -5.59.
In the case of `CN1CCC[C@H]1c1cc(C(=O)NCC2(c3ccccc3)CC2)[nH]n1`, the “% Inhibition” value is recorded as -11% and the Z score was determined as 1.97.
As to `N#CCC(=O)Nc1nc(C2CC2)c(Cc2ccc(F)cc2)s1`, the “% Inhibition” value is listed as -4% and the Z score stood at 0.42.
Regarding `COc1cccc([C@H](C)NC(=O)c2cnc(-c3cccnc3)nc2O)c1`, the “% Inhibition” value is given as 2% and the Z score is on record as -0.24.
Consider `COCCc1noc(CNC(=O)c2cnc(-c3ccc(C)cc3)nc2O)n1`, for which the “% Inhibition” value is -9% and the Z score came out at 0.88.
As for `CCc1cnc(NC(=O)NCc2csc(NC)n2)s1`, the “% Inhibition” value is on record as 35% and the Z score is on record as -3.91.
On to `CC(=O)N[C@H](C(=O)N(C)c1nc(C)cs1)C(C)C`, for which the “% Inhibition” value turned out to be 4% and the Z score is reported as -0.65.
Take `Cc1ccc(CCC(=O)N[C@H]2CCc3ccccc32)cc1`: the “% Inhibition” value is reported as 1% and the Z score is listed as -0.11.
`O=C1N(c2cccc(F)c2)Cc2nn(Cc3ccccc3)c(=O)n21`: the “% Inhibition” value was determined as 2% and the Z score is recorded as -0.47.
Consider `CCn1nc(Cc2c(Cl)cccc2Cl)nc1[C@H](C)NC`, for which the “% Inhibition” value was -3% and the Z score is listed as 0.59.
On the same counts, the results for `Cc1nc(CCNC(=O)CCC2=NNC(=O)CC2)sc1Cl` are 2% and -0.3.
With `CCc1ncc(C(=O)N2C[C@H]3CC[C@@H](C2)N(CC2CCC2)C3=O)cn1`, the “% Inhibition” value was -10% and the Z score came out at 1.18.
For the molecule `Cc1c(C(F)(F)F)nn(C)c1NC(=O)N[C@H]1[C@H](c2ccccc2)C1(C)C`, the “% Inhibition” value is listed as -7% and the Z score came to 1.29.
The matching figures for `Cc1cccc(CN2CCC(N3C(=O)N4CCC[C@@]4(C)C3=O)CC2)c1`: -3% and 0.56.
As to `COc1ccc(-n2nc(Nc3cccc4cccnc34)c(C(C)=O)n2)cc1`, the “% Inhibition” value came to 6% and the Z score was -0.69.
As for `CN(C(=O)Cn1c(=O)n(C)c2ccccc21)[C@H]1CCS(=O)(=O)C1`, the “% Inhibition” value is on record as -9% and the Z score worked out at 1.54.
`Cc1ccc(C)c(-c2n[nH]cc2CN(C)[C@@H](C)C(=O)N(C)C)c1`: the “% Inhibition” value was -18% and the Z score turned out to be 1.77.
In the case of `CC(C(=O)N1Cc2ccccc2CC1c1ccccc1)C1CCOCC1` (centres undefined), the “% Inhibition” value is -14% and the Z score worked out at 1.73.
`CN1C[C@@H]2CC[C@H]1CN(C(=O)Nc1cccc3ccccc13)C2`: the “% Inhibition” value is on record as -5% and the Z score stood at 0.92.
The matching figures for `O=C(CCN1CCN(c2ccccc2Cl)CC1)NC1CCCC1`: -3% and 0.4.
With `Cc1c(NC(=O)CN(Cc2cccnc2)Cc2ccsc2)cnn1C`, the “% Inhibition” value amounted to 1% and the Z score is listed as -0.24.
On to `Cc1cccc(C(=O)N2CCC[C@]3(CCC(=O)N(C4CCCC4)C3)C2)c1O`, for which the “% Inhibition” value is listed as 0% and the Z score is listed as -0.07.
Regarding `O=C(Nc1ccnn1CC1CC1)c1sccc1C1CC1`, the “% Inhibition” value turned out to be 3% and the Z score was -0.47.
`O=C(c1cn(-c2ccccn2)c(=O)c2ccccc12)n1ccnc1`: the “% Inhibition” value was -16% and the Z score is on record as 1.94.
On to `O=C(c1cc(C(F)F)[nH]n1)N1CCC[C@H]1COc1ccc(F)cc1`, for which the “% Inhibition” value is 0% and the Z score is -0.04.
On the same counts, the results for `N#Cc1cnc(NC(CO)CO)c(Cl)c1` are 31% and -3.5.
For the molecule `Cc1ccc(CN2CCN(C(=O)N3CCCC3)[C@H]3CS(=O)(=O)C[C@H]32)o1`, the “% Inhibition” value is reported as -2% and the Z score turned out to be 0.47.
As to `Cc1nc(CN2CCN(CC(C)C)[C@@H]3CS(=O)(=O)C[C@@H]32)n(C)n1`, the “% Inhibition” value is recorded as -9% and the Z score came out at 1.44.
Take `O=c1[nH]cnc2c(N3CCOC4(CCOCC4)CC3)nccc12`: the “% Inhibition” value was -6% and the Z score is 1.22.
Turning to `C[C@@H](C(=O)Nc1ccc2c(c1)OCCCO2)N1CCC(O)CC1`, the “% Inhibition” value was -6% and the Z score was found to be 0.84.
